# According to a collection of fitness landscapes (doi:10.1126/science.1257360):
# This is one part of the list.
# B1: PhoQ; a variant is named by its letters at X, in order, P23837 (parent)
# chain: MKKLLRLFFPLSLRVRFLLATAAVVLVLSLAYGMVALIGYSVSFDKTTFRLLRGESNLFYTLAKWENNKLHVELPENIDKQSPTMTLIYDENGQLLWAQRDVPWLMKMIQPDWLKSNGFHEIEADVNDTSLLLSGDHSIQQQLQEVREDDDDAEMTHSVAVNVYPATSRMPKLTIVVVDTIPVELKSSYMVWSWFIYVLSANLLLVIPLLWVAAWWSLRPIEALAKEVRELEEHNRELLNPATTRELTSLVRNLNRLLKSERERYDKYRTTLTDLTHSLKTPLXXLQXXLRSLRSEKMSVSDAEPVMLEQISRISQQIGYYLHRASMRGGTLLSRELHPVAPLLDNLTSALNKVYQRKGVNISLDISPEISFVGEQNDFVEVMGNVLDNACKYCLEFVEISARQTDEHLYIVVEDDGPGIPLSKREVIFDRGQRVDTLRPGQGVGLAVAREITEQYEGKIVAGESMLGGARMEVIFGRQHSAPKDE
# Variants of: B1
# Assay: enrichment ratio after two sorts for PhoP signalling (ratio (wild type AVST 3.29)); higher = more functional
# Settings: with PhoP (E. coli)
row,Variant,enrichment ratio
1,YDMP,≤ 0.25
2,SAIL,2.01
3,GLLR,≤ 0.25
4,NPTE,≤ 0.25
5,YSRQ,≤ 0.25
6,VWPY,≤ 0.25
7,QIPM,≤ 0.25
8,RELQ,≤ 0.25
9,EECV,≤ 0.25
10,LDFY,≤ 0.25
11,RTVV,≤ 0.25
12,MYNV,≤ 0.25
13,GWWN,≤ 0.25
14,MDEY,≤ 0.25
15,LFVV,≤ 0.25
16,WNLL,≤ 0.25
17,MCTT,≤ 0.25
18,WGVF,≤ 0.25
19,PGMH,≤ 0.25
20,NCRH,≤ 0.25
21,RWWL,≤ 0.25
22,RHQE,≤ 0.25
23,LNHF,≤ 0.25
24,QPPH,≤ 0.25
25,DPHP,0.272

row,Variant,enrichment ratio
1,FREN,≤ 0.25
2,AWTQ,≤ 0.25
3,IFYD,≤ 0.25
4,AWFM,≤ 0.25
5,HPDQ,≤ 0.25
6,MQID,≤ 0.25
7,WDWC,≤ 0.25
8,DCHL,≤ 0.25
9,ALID,≤ 0.25
10,HYFY,≤ 0.25
11,NLWC,≤ 0.25
12,AVGG,3.35
13,PASY,≤ 0.25
14,RCIQ,≤ 0.25
15,SSDF,0.297
16,WYIH,≤ 0.25
17,VAFR,≤ 0.25
18,NPYD,≤ 0.25
19,ICAF,≤ 0.25
20,KSET,≤ 0.25
21,AMFF,≤ 0.25
22,IKPS,≤ 0.25
23,PWRN,≤ 0.25
24,GKIR,≤ 0.25
25,KMWP,≤ 0.25

row,Variant,enrichment ratio
1,HIFG,≤ 0.25
2,GSIF,5.29
3,MAPD,≤ 0.25
4,YCDK,≤ 0.25
5,EYNN,≤ 0.25
6,QHFI,≤ 0.25
7,FDHY,≤ 0.25
8,TKNK,≤ 0.25
9,ATFK,0.322
10,TMVL,≤ 0.25
11,FLKY,≤ 0.25
12,WDGR,≤ 0.25
13,KTHV,≤ 0.25
14,IWDK,≤ 0.25
15,MLWV,≤ 0.25
16,DWRC,≤ 0.25
17,IHWD,≤ 0.25
18,PRHC,≤ 0.25
19,KVTF,≤ 0.25
20,KYTF,≤ 0.25
21,FLPV,≤ 0.25
22,SKQH,≤ 0.25
23,WWVY,≤ 0.25
24,HFGE,≤ 0.25
25,EKGS,≤ 0.25

row,Variant,enrichment ratio
1,MTVM,12.8
2,HEAD,≤ 0.25
3,WRHS,≤ 0.25
4,EKGC,≤ 0.25
5,IIHQ,≤ 0.25
6,EHQC,≤ 0.25
7,SQIP,≤ 0.25
8,IEHC,≤ 0.25
9,EDWQ,≤ 0.25
10,TTSC,10.3
11,YSDH,≤ 0.25
12,TLRN,≤ 0.25
13,WIYY,≤ 0.25
14,YMRE,≤ 0.25
15,PGGH,≤ 0.25
16,WVYD,≤ 0.25
17,LNPP,≤ 0.25
18,HKEC,≤ 0.25
19,YHYH,≤ 0.25
20,FILT,≤ 0.25
21,NSDG,≤ 0.25
22,NILN,≤ 0.25
23,YSYL,≤ 0.25
24,TPCM,≤ 0.25
25,LQLH,≤ 0.25

row,Variant,enrichment ratio
1,QPYK,≤ 0.25
2,FWWY,≤ 0.25
3,IRNI,≤ 0.25
4,IMYA,≤ 0.25
5,GWEA,≤ 0.25
6,MSNS,≤ 0.25
7,AVVS,1.39
8,HQVI,≤ 0.25
9,YNWH,≤ 0.25
10,SALR,2.39
11,IHGS,≤ 0.25
12,FEIY,≤ 0.25
13,LYKS,≤ 0.25
14,GWYS,≤ 0.25
15,DDPG,≤ 0.25
16,KTMR,≤ 0.25
17,PTTF,≤ 0.25
18,SGST,9.85
19,AKGY,≤ 0.25
20,TSRP,≤ 0.25
21,NQCS,≤ 0.25
22,DMPL,≤ 0.25
23,NLFG,≤ 0.25
24,AWAP,≤ 0.25
25,WDWR,≤ 0.25

row,Variant,enrichment ratio
1,WTVL,≤ 0.25
2,NVWP,≤ 0.25
3,NPHL,≤ 0.25
4,LLFK,≤ 0.25
5,WGTI,≤ 0.25
6,KCSH,≤ 0.25
7,FHTQ,≤ 0.25
8,TRSF,≤ 0.25
9,VTWK,≤ 0.25
10,DART,≤ 0.25
11,HCYV,≤ 0.25
12,PSMT,≤ 0.25
13,SCGW,20.5
14,SSNT,≤ 0.25
15,RQEC,≤ 0.25
16,PCIT,≤ 0.25
17,THQG,6.61
18,YNDV,≤ 0.25
19,LYLI,≤ 0.25
20,TLFY,≤ 0.25
21,WPYA,≤ 0.25
22,FKSK,≤ 0.25
23,YHCS,≤ 0.25
24,HGDL,≤ 0.25
25,NFIQ,≤ 0.25

row,Variant,enrichment ratio
1,PLKF,≤ 0.25
2,PYLQ,≤ 0.25
3,PMPE,≤ 0.25
4,ENMR,≤ 0.25
5,LQPD,≤ 0.25
6,HTVN,≤ 0.25
7,MIHI,≤ 0.25
8,ETYP,≤ 0.25
9,VQCG,≤ 0.25
10,SWWI,≤ 0.25
11,IWFK,≤ 0.25
12,KKIR,≤ 0.25
13,IGIT,≤ 0.25
14,KSTL,≤ 0.25
15,KFWF,≤ 0.25
16,GIVC,4.3
17,DPCK,≤ 0.25
18,ACFE,≤ 0.25
19,IAQF,≤ 0.25
20,GEIS,20.8
21,NDKY,≤ 0.25
22,LEAW,≤ 0.25
23,LCWS,≤ 0.25
24,TIGQ,3.58
25,WMCQ,≤ 0.25

row,Variant,enrichment ratio
1,GCPS,≤ 0.25
2,THHE,≤ 0.25
3,IQDW,≤ 0.25
4,DFKR,≤ 0.25
5,LECA,≤ 0.25
6,MNLN,≤ 0.25
7,MPND,≤ 0.25
8,PKQH,≤ 0.25
9,IFQA,≤ 0.25
10,WHFH,≤ 0.25
11,PGRY,≤ 0.25
12,SIPD,≤ 0.25
13,YMFA,≤ 0.25
14,LNTP,≤ 0.25
15,DQHS,≤ 0.25
16,QHTI,≤ 0.25
17,KQKF,≤ 0.25
18,RFNA,≤ 0.25
19,QGHR,≤ 0.25
20,SICS,16.9
